Among all 330,000 compounds or so, about 4,200 (1.3%) were called active. Inconclusive results, whose numbers are uncertain, are shown with a selection of clear calls. Calls follow the shape of the dose curve; as a rule, active = well fitted activation curve with a large enough effect; inconclusive = small, poorly fitted or top-dose-only effect; inactive = no such curve, though single readings can be large or run the other way. Potencies beside an inconclusive call are fits to weak or partial responses and may not hold up.
Assay: qHTS screen for small molecules that induce genotoxicity in human embryonic kidney (HEK293T) cells expressing luciferase-tagged ELG1; also: nearly all actives have a fitted effect of over 60% in size
Settings: HEK293T ELG1-luciferase reporter, luminescence, 16 h; series mostly up to 46 µM
Method in brief: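 ELG1-luciferase HEK293T cells, 2,000/well; compound pinned in; 16 hr, 37 °C, 5% CO2; ONE-Glo, 30 min RT; luminescence on CCD imager.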
Potency is read from the fitted curve at half-maximal effect; tags tell the direction and shape of the fitted curve.

Question: For `CCCCCc1ccc(C2=NNC(=O)CC2)cc1`, which Potency is on record?
Answer: inconclusive: 32.6 µM [activator, partial curve, poor fit]

Question: Which Potency does the source give for `CCc1nnc(NC(=O)c2ccc(S(C)(=O)=O)cc2)s1` here?
Answer: inactive

Question: For `O=[N+]([O-])c1ccc(Sc2cc[n+]([O-])c3ccccc23)c([N+](=O)[O-])c1`, which Potency is on record?
Answer: inconclusive: 32.6 µM [activator, partial curve, poor fit]

Question: Which Potency does the source give for `Cc1ccc(NC(=O)C2COc3ccccc3O2)cc1C` (centres undefined) here?
Answer: inconclusive: 10.3 µM [activator, partial curve]

Question: With `CCc1ccc(C(=O)/C=C/c2ccc([N+](=O)[O-])o2)cc1` as the molecule, how does the Potency read?
Answer: inconclusive: 22.4 µM [activator, single point]

Question: Which Potency does the source give for `O=C(c1ccccc1-c1nc(-c2ccc(Cl)cc2)no1)N1CCCC1` here?
Answer: inconclusive: 6.51 µM [activator, partial curve, poor fit]

Question: With `Cc1nn(-c2ccccc2)c(N)c1N=Nc1ccc(Cl)cc1` as the molecule, how does the Potency read?
Answer: inconclusive: 6.51 µM [activator, partial curve]

Question: Which Potency does the source give for `CC1CCN(C(=S)NCCc2ccccc2)CC1` here?
Answer: active: 7.31 µM

Question: For `Oc1ccccc1N1CCN(c2ccc3ccccc3n2)CC1`, which Potency is on record?
Answer: inconclusive: 2.31 µM [activator, full curve]

Question: With `CC(C)c1ccc(C2NC(=O)NC3=C2CCc2ccccc23)cc1` (centres undefined) as the molecule, how does the Potency read?
Answer: inactive

Question: With `Cc1c(NC(=O)COc2ccc(C(C)C)cc2)c(=O)n(-c2ccccc2)n1C` as the molecule, how does the Potency read?
Answer: inactive

Question: With `COc1ccc(-c2nn(C)c(=O)c3ccccc23)cc1NC(=O)Cn1nc(C)c2ccccc2c1=O` as the molecule, how does the Potency read?
Answer: inconclusive: 11.6 µM [activator, partial curve, poor fit]

Question: For `COc1ccc(CN=C(Nc2ccccc2)SC2CC(=O)NC2=O)cc1` (centres undefined), which Potency is on record?
Answer: inconclusive: 18.3 µM [activator, partial curve]

Question: With `C/C(=N\Nc1ccccc1)c1cccc(N)c1` as the molecule, how does the Potency read?
Answer: inconclusive: 20.6 µM [activator, partial curve, poor fit]

Question: Which Potency does the source give for `Brc1c(CSc2nc3ccccc3o2)nc2ncccn12` here?
Answer: inconclusive: 20.6 µM [activator, partial curve]

Question: For `Cc1cc(NC(=O)CSc2nnc(Nc3ccccc3F)s2)no1`, which Potency is on record?
Answer: inconclusive: 29.1 µM [activator, partial curve, poor fit]

Question: Which Potency does the source give for `Cn1c(CN2CCCC2)nc2cc(NC(=O)c3ccco3)ccc21` here?
Answer: active: 14.6 µM

Question: With `COc1ccc(/C=N/Nc2nc(-c3ccc(C)cc3)c(NC(C)=O)s2)cc1OC` as the molecule, how does the Potency read?
Answer: inconclusive: 20.6 µM [activator, partial curve, poor fit]

Question: Which Potency does the source give for `O=C(COC(=O)COc1ccccc1)NC1CCS(=O)(=O)C1` (centres undefined) here?
Answer: inactive

Question: For `Nc1ccc(-c2nc3ccc(N)cc3s2)cc1`, which Potency is on record?
Answer: inconclusive: 2.59 µM [activator, partial curve]

Question: Which Potency does the source give for `CO/N=C/C(=N\Nc1cc(OC)cc(OC)c1)C(=O)c1ccccc1` here?
Answer: inactive

Question: For `CCC(C)NC(=O)Cn1c(COc2ccc(Cl)cc2Cl)nc2ccccc21` (centres undefined), which Potency is on record?
Answer: inconclusive: 18.4 µM [activator, single point]

Question: For `O=C1Nc2ccccc2/C1=N\N=C\c1ccc(O)c(O)c1`, which Potency is on record?
Answer: inconclusive: 16.4 µM [activator, single point]

Question: For `O=C(O)c1cccc(N2C(=O)c3ccc(Oc4ccc(Cl)cc4)cc3C2=O)c1`, which Potency is on record?
Answer: inactive

Question: For `COc1ccc(Cl)cc1-c1nc(-c2ccncc2)no1`, which Potency is on record?
Answer: inconclusive: 23.1 µM [activator, partial curve, poor fit]

Question: For `NNC(=O)c1ccccc1OCCOc1ccccc1`, which Potency is on record?
Answer: inactive

Question: For `c1ccc(-n2nnc(-c3cccnc3)n2)cc1`, which Potency is on record?
Answer: inconclusive: 16.4 µM [activator, partial curve]

Question: Which Potency does the source give for `O=C(NNc1nc(=O)c2cccnc2s1)c1ccccc1O` here?
Answer: inactive

Question: With `CN1CCN(C(=O)c2ccc3ccccc3c2)CC1` as the molecule, how does the Potency read?
Answer: inconclusive: 18.4 µM [activator, single point]

Question: With `CCOC(=O)c1sc(NC(=O)c2ccc(CC)s2)nc1C` as the molecule, how does the Potency read?
Answer: active: 2.59 µM

Question: Which Potency does the source give for `O=C(Nc1ccc2ncccc2c1)c1cccc(Br)c1` here?
Answer: inconclusive: 6.31 µM [activator, single point]

Question: Which Potency does the source give for `Cc1ccc2c(c1)COc1c3ccc(C(=O)N[C@@H](C)CO)cc3nn1-2` here?
Answer: inconclusive: 2.31 µM [activator, full curve]

Question: Which Potency does the source give for `O=C(COC(=O)C1=COCCO1)Nc1ccc(Br)cc1Br` here?
Answer: inactive

Question: With `CCC/C=N/Nc1nc2ccccc2s1` as the molecule, how does the Potency read?
Answer: inconclusive: 5.8 µM [activator, partial curve]

Question: With `O=C(CSc1nnc(-c2ccncc2)o1)N1CCCCCC1` as the molecule, how does the Potency read?
Answer: inactive

Question: Which Potency does the source give for `Oc1ccc2ccccc2c1/C=N/Nc1ccccc1` here?
Answer: inconclusive: 13 µM [activator, partial curve, poor fit]

Question: With `N#CCSc1ccc2nc(-c3ccccc3)cn2n1` as the molecule, how does the Potency read?
Answer: inconclusive: 16.4 µM [activator, partial curve]

Question: With `O=C(NC(=S)NCc1nc2ccccc2[nH]1)c1ccc(F)cc1` as the molecule, how does the Potency read?
Answer: inconclusive: 20.6 µM [activator, single point]

Question: With `COc1cccc(C2=NN(C(=O)c3cccs3)C(O)(C(F)(F)F)C2)c1` (centres undefined) as the molecule, how does the Potency read?
Answer: inconclusive: 0.058 µM [activator, full curve, poor fit]

Question: For `O=C(Nc1ccc(C(=O)OC2CCCCC2)cc1)c1ccncc1`, which Potency is on record?
Answer: inactive

Question: With `CC(C)COc1ccc(C(=O)NNC(=O)c2ccc(=O)[nH]c2)cc1` as the molecule, how does the Potency read?
Answer: inactive

Question: For `CC1CCN(C(=O)CSC2=NS(=O)(=O)c3cc(F)ccc3N2)CC1`, which Potency is on record?
Answer: inactive

Question: For `Cc1ccc(-n2cc(CNC(C)c3cnn(C)c3)c(-c3ccc(F)cc3)n2)cc1` (centres undefined), which Potency is on record?
Answer: inactive

Question: With `CC(=O)Nc1cccc(C(=O)N/N=C/c2ccccc2F)c1` as the molecule, how does the Potency read?
Answer: active: 7.31 µM

Question: For `N#C/C(=C\c1ccc(F)cc1F)S(=O)(=O)c1ccccn1`, which Potency is on record?
Answer: inactive

Question: For `CCC(C)c1ccc(NC(=S)N2CCCC2)cc1` (centres undefined), which Potency is on record?
Answer: inconclusive: 8.2 µM [activator, partial curve, poor fit]

Question: For `COc1ccc(OCc2cc(C(=O)NCC3CCCCO3)no2)c(Cl)c1` (centres undefined), which Potency is on record?
Answer: inconclusive: 23.1 µM [activator, partial curve, poor fit]

Question: For `O=C(Cn1c(-c2ccccc2)c[n+]2ccsc12)c1ccc(Br)cc1`, which Potency is on record?
Answer: inactive

Question: Which Potency does the source give for `O=C(CCC(=O)N1CCN(c2ccccn2)CC1)c1cccs1` here?
Answer: inconclusive: 11.6 µM [activator, partial curve, poor fit]

From PubChem BioAssay AID504466 (National Center for Advancing Translational Sciences (NCATS), 2011)
